According to PubChem BioAssay:
Inconclusive results, whose numbers are uncertain, are shown with a selection of clear calls. The source made the active and inactive calls.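 How the source made its calls: active means fitted half-maximal concentration for viability loss no higher than twice the top valid dose, in every repeat run; inconclusive means repeat runs disagree, flat partial loss, or poor curve fit; inactive means the rest.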

Assay: IOSE-T80 viability loss, PAX8-independent line – cell-based, cherry-pick, selectivity assay for PAX8 inhibitor project, dose response (AID 687032);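 further: cells exposed to compound for 96 h before reading; 0% = neutral control wells and -100% = 2 µM mitoxantrone kill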
Conditions: CellTiterGlo ATP luminescence, 96 h; at 35 µM (top of the series) unless noted

Q: For `C[C@@H]1CCCCO[C@H](CN(C)S(=O)(=O)c2ccc(Cl)cc2)[C@@H](C)CN([C@@H](C)CO)C(=O)c2cc(NC(=O)CCC(F)(F)F)ccc2O1`, which activity change, negative = viability loss is on record?
A: The activity change, negative = viability loss was inactive: 12.3%.

Q: For `O=C(O)CC(NC(=O)C1c2ccccc2Oc2ccccc21)c1ccc(OC2CCCC2)cc1` (centres undefined), which activity change, negative = viability loss is on record?
A: Its activity change, negative = viability loss is inconclusive: 14.6%.

Q: With `COc1ccc(OCCNC(=O)/C=C/c2ccc([N+](=O)[O-])cc2)cc1` as the compound, how does the activity change, negative = viability loss read?
A: The activity change, negative = viability loss was inconclusive: 5.67%.

Q: With `Cc1cc(CN(C)C(=O)c2cc(COc3ccc4ncccc4c3)on2)on1` as the compound, how does the activity change, negative = viability loss read?
A: Its activity change, negative = viability loss is inconclusive: 15.1%.

Q: With `COc1ccc(CN(C)C[C@H]2OCCCC[C@H](C)Oc3ccc(NC(=O)Nc4ccc(C(F)(F)F)cc4)cc3C(=O)N([C@@H](C)CO)C[C@@H]2C)cc1` as the compound, how does the activity change, negative = viability loss read?
A: Its activity change, negative = viability loss is inactive: 21.4%.

Q: With `Cc1ccccc1-c1ccc(C2[C@@H]3CN(C(=O)Nc4cccc(F)c4)C[C@H]2N3)cc1` (some centres undefined) as the compound, how does the activity change, negative = viability loss read?
A: The activity change, negative = viability loss was inactive: 14.7%.

Q: Which activity change, negative = viability loss does the source give for `CN1c2ccc(-c3ccccc3)cc2[C@H]2[C@H](CCN2C(=O)NC2CCCCC2)[C@@H]1CO` here?
A: Its activity change, negative = viability loss is inconclusive: 11.4%.

Q: Which activity change, negative = viability loss does the source give for `CC(=O)Nc1ccc(S(=O)(=O)c2ccnc3cc(Cl)ccc23)cc1` here?
A: The activity change, negative = viability loss was inconclusive: 4.07%.

Q: Which activity change, negative = viability loss does the source give for `Cc1cccc(/C=C(\c2nc3ccccc3[nH]2)S(=O)(=O)c2ccccc2)c1` here?
A: Its activity change, negative = viability loss is inconclusive: 13.7%.

Q: With `O=[N+]([O-])c1cccc(-c2nnc(-c3ccc4c(c3)OCO4)o2)c1` as the compound, how does the activity change, negative = viability loss read?
A: Its activity change, negative = viability loss is inconclusive: 9.92%.

Q: Which activity change, negative = viability loss does the source give for `COc1ccc(-n2nc([N+](=O)[O-])c(=NCc3cccnc3)n2O)cc1` here?
A: The activity change, negative = viability loss was inconclusive: 0.05%.

Q: Which activity change, negative = viability loss does the source give for `Cc1cc(NC(=O)CCCS(=O)(=O)c2nc(-c3cccs3)cc(C(F)(F)F)n2)no1` here?
A: Its activity change, negative = viability loss is inconclusive: 14.4%.

Q: Which activity change, negative = viability loss does the source give for `Cc1ccc(S(=O)(=O)NCc2ccc(C(=O)N3CCN(c4ccc([N+](=O)[O-])cc4)CC3)cc2)cc1` here?
A: The activity change, negative = viability loss was inconclusive: 14.4%.

Q: For `Cc1cccc(-n2ncc(Cl)c(Cl)c2=O)c1`, which activity change, negative = viability loss is on record?
A: Its activity change, negative = viability loss is inconclusive: 16.5%.

Q: Which activity change, negative = viability loss does the source give for `O=C(Cc1cccs1)N/N=C/C=C/c1ccccc1` here?
A: The activity change, negative = viability loss was inconclusive: 8.13%.

Q: With `C[C@@H]1CCCCO[C@H](CN(C)C(=O)c2ccccc2)[C@H](C)CN([C@@H](C)CO)C(=O)c2cc(NC(=O)Nc3ccc(C(F)(F)F)cc3)ccc2O1` as the compound, how does the activity change, negative = viability loss read?
A: The activity change, negative = viability loss was inactive: 35.5%.

Q: For `Cc1nc2c(=O)n(C)c(=O)n(C)c2nc1Cl`, which activity change, negative = viability loss is on record?
A: The activity change, negative = viability loss was inconclusive: 19.2%.

Q: Which activity change, negative = viability loss does the source give for `CCCCCCCCn1c2c(c(=N)c3c1CCC3)CCCC2` here?
A: The activity change, negative = viability loss was inconclusive: 1.08%.

Q: With `CCCCn1c(=O)[nH]c(=O)c2c1nc(Cn1ncc(Cl)c(Cl)c1=O)n2CCC` as the compound, how does the activity change, negative = viability loss read?
A: The activity change, negative = viability loss was inconclusive: 16.8%.

Q: Which activity change, negative = viability loss does the source give for `O=C(CCS(=O)(=O)c1ccc(Cl)cc1)Nc1nc(-c2ccncc2)cs1` here?
A: Its activity change, negative = viability loss is inconclusive: 5.77%.

Q: Which activity change, negative = viability loss does the source give for `Cc1ccccc1-c1ccc([C@@H]2[C@H](CO)N3CCCCN(C(=O)Nc4cccc(F)c4)C[C@@H]23)cc1` here?
A: The activity change, negative = viability loss was inactive: 12.6%.

Q: For `C[C@@H]1CCCCO[C@@H](CN(C)Cc2ccc(C(F)(F)F)cc2)[C@H](C)CN([C@H](C)CO)C(=O)c2cc(NS(=O)(=O)c3ccc(F)cc3)ccc2O1`, which activity change, negative = viability loss is on record?
A: Its activity change, negative = viability loss is inactive: 14.6%.

Q: Which activity change, negative = viability loss does the source give for `O=C(Nc1ccc(F)cc1)N1CCCCN2[C@@H](CO)[C@@H](c3ccc(-c4cccc(F)c4)cc3)[C@@H]2C1` here?
A: The activity change, negative = viability loss was inactive: 15.6%.

Q: With `C[C@@H]1CN([C@H](C)CO)C(=O)c2cc(NS(=O)(=O)c3ccc(F)cc3)ccc2O[C@@H](C)CCCCO[C@@H]1CN(C)CC1CCCCC1` as the compound, how does the activity change, negative = viability loss read?
A: The activity change, negative = viability loss was inactive: 12.9%.

Q: With `C[C@@H]1CN([C@H](C)CO)C(=O)c2cc(NS(=O)(=O)c3ccccc3)ccc2O[C@@H](C)CCCCO[C@@H]1CN(C)Cc1ccc(C(F)(F)F)cc1` as the compound, how does the activity change, negative = viability loss read?
A: Its activity change, negative = viability loss is inconclusive: 36.6%.

Q: With `O=c1ccc2ccccc2c2ccccc12` as the compound, how does the activity change, negative = viability loss read?
A: Its activity change, negative = viability loss is inconclusive: 7.05%.

Q: For `O=C(COC(=O)c1ccco1)Nc1cccc(S(=O)(=O)N2CCOCC2)c1`, which activity change, negative = viability loss is on record?
A: Its activity change, negative = viability loss is inconclusive: 11.5%.

Q: Which activity change, negative = viability loss does the source give for `Cc1ccc(S(=O)(=O)Nc2ccc3c(c2)C(=O)N([C@@H](C)CO)C[C@@H](C)[C@@H](CN(C)S(=O)(=O)c2ccc(Cl)cc2)OCCCC[C@@H](C)O3)cc1` here?
A: Its activity change, negative = viability loss is inconclusive: 7.98%.

Q: For `COC1OC(COCc2ccccc2)C2OC(C)(C)OC2C1O` (centres undefined), which activity change, negative = viability loss is on record?
A: The activity change, negative = viability loss was inconclusive: -2.87%.
